Data: the supplement of paper PMC7826260
Some of the results follow. One pool of 16,384 single-stranded DNAs met each Rep nickase domain in vitro (1 h at 37 °C, 3 µM enzyme); the outer parts of the 90-letter strands are left off. Values are log2 of uncut reads against the no-enzyme pool; more negative means more cut, near 0 not cut, and no call is made. Counts are relative to all reads; where an enzyme cuts many sequences, the uncut ones exceed 0.

Key:
Assay in all cases: uncleaved DNA left, log2 of reads against the no-enzyme library (log2 ratio); higher = less cleavage (more negative = more Rep cleavage of the k-mer); sequences stand for … in CTCGTCCG…ACCGGAGA
[1] = tested on: T1, Rep nickase domain of Muscovy duck circovirus
T1 sequence (protein, residues 1-111, tag omitted): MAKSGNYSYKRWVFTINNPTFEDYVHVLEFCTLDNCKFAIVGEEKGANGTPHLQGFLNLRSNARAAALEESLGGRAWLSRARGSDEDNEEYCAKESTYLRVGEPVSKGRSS
Experimental: (§1)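 A pool of 90-nt single-stranded DNAs with seven random bases just before the constant AC of the nick site (name = the seven bases) was cut by 3 µM recombinant His6-SUMO-tagged Rep nickase domain (300 nM DNA, 50 mM HEPES pH 8.0, 50 mM NaCl, 1 mM MnCl2, 1 h, 37 °C, three replicates). Uncut DNA was amplified and sequenced.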

[2] = tested on: T2, Rep nickase domain of banana bunchy top virus
T2 sequence (protein, residues 1-94, tag omitted): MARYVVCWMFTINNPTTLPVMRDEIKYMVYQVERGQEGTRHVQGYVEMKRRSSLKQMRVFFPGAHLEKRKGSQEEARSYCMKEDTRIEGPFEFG
Experimental: as §1

[3] = tested on: T3, Rep nickase domain of cabbage leaf curl virus
T3 sequence (protein, residues 1-116, tag omitted): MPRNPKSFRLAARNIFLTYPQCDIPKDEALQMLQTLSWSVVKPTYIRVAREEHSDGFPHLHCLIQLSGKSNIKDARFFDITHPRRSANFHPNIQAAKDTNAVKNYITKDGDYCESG
Experimental: as §1

[4] = tested on: T4, Rep nickase domain of chickpea chlorotic dwarf virus
T4 sequence (protein, residues 1-124, tag omitted): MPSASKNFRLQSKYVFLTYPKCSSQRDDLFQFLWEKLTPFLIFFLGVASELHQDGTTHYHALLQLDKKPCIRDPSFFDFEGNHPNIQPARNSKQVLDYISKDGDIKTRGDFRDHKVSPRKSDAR
Experimental: as §1

[5] = tested on: T5, Rep nickase domain of faba bean necrotic yellows virus
T5 sequence (protein, residues 1-98, tag omitted): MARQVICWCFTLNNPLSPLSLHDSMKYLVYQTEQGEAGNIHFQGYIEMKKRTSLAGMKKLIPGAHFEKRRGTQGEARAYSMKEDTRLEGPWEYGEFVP
Experimental: as §1

[6] = tested on: T6, Rep nickase domain of maize striate mosaic virus
T6 sequence (protein, residues 1-117, tag omitted): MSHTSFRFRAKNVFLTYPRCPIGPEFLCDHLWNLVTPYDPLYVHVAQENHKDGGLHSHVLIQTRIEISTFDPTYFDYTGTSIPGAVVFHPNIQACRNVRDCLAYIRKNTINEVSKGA
Experimental: as §1

[7] = tested on: T7, Rep nickase domain of porcine circovirus 2
T7 sequence (protein, residues 2-116, tag omitted): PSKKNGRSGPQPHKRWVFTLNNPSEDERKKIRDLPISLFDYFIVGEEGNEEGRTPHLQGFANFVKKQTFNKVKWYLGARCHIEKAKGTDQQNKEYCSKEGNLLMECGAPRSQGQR
Experimental: as §1

[8] = tested on: T8, Rep nickase domain of tomato golden mosaic virus
T8 sequence (protein, residues 1-124, tag omitted): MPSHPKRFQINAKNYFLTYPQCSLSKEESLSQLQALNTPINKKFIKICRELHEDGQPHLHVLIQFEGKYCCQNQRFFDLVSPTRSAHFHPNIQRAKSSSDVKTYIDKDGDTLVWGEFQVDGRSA
Experimental: as §1

[9] = tested on: T9, Rep nickase domain of tomato yellow leaf curl virus
T9 sequence (protein, residues 1-136, tag omitted): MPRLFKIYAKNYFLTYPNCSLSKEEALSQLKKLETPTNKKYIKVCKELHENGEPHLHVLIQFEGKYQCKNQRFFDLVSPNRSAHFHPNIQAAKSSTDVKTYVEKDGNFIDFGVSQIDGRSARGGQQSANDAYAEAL
Experimental: as §1

[10] = tested on: T10, Rep nickase domain of wheat dwarf virus
T10 sequence (protein, residues 1-137, tag omitted): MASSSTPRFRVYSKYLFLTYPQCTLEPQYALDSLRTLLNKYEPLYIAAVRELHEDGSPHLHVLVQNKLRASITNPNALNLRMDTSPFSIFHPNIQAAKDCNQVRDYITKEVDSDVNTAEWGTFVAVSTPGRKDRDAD
Experimental: as §1

Row | Sequence | uncleaved DNA left (log2) [1] | uncleaved DNA left (log2) [2] | uncleaved DNA left (log2) [3] | uncleaved DNA left (log2) [4] | uncleaved DNA left (log2) [5] | uncleaved DNA left (log2) [6] | uncleaved DNA left (log2) [7] | uncleaved DNA left (log2) [8] | uncleaved DNA left (log2) [9] | uncleaved DNA left (log2) [10]
1 | TATTATC | -1.36 | -0.411 | -0.138 | -0.795 | -0.0567 | -0.393 | -1.7 | 0.0318 | 0.132 | 0.0977
2 | TCCATAA | 0.0833 | 0.11 | -0.0923 | -0.279 | -0.00813 | -0.606 | -0.0164 | 0.129 | -0.0235 | -0.105
3 | AAAGTTG | 0.0769 | 0.0516 | 0.252 | 1.26 | 0.0603 | 1.23 | 0.227 | 0.039 | -0.0683 | 0.0609
4 | CCATTTG | 0.121 | -0.0804 | -0.927 | -0.161 | 0.0869 | -0.916 | 0.261 | 0.0734 | 0.122 | 0.0257
5 | CCTACAA | -0.0718 | 0.0514 | -0.285 | -1.91 | 0.143 | -0.768 | 0.178 | -0.101 | 0.117 | 0.149
6 | TAACGCG | 0.0843 | -0.0256 | -0.729 | 0.209 | -0.00973 | -0.449 | 0.121 | -0.031 | 0.0157 | -0.0661
7 | GGGACTT | 0.0778 | 0.105 | 1.02 | 2.18 | 0.0846 | 2.39 | 0.303 | 0.115 | -0.0739 | 0.255
8 | CAGCACT | -0.00522 | 0.0166 | -0.174 | -2.53 | 0.0813 | 0.151 | -2.93 | 0.127 | -0.0782 | -0.16
9 | CTTACTG | -0.0917 | -0.0117 | -0.161 | -0.247 | -0.126 | 0.698 | -0.0964 | -0.147 | -0.0697 | 0.0113
10 | GACCATG | 0.172 | -0.0129 | -0.135 | 0.116 | 0.0322 | -0.428 | 0.151 | 0.0427 | 0.175 | 0.0876
11 | CTGGGGC | 0.0331 | -0.0343 | 0.639 | 1.18 | 0.0268 | 1.45 | 0.0549 | -0.0611 | -0.103 | -0.0234
12 | CTTTATC | 0.141 | -0.0476 | 0.0556 | 0.0752 | -0.0539 | -0.584 | -0.245 | -0.11 | 0.0679 | 0.0967
13 | CACATTT | -0.0896 | -0.809 | -0.726 | -2.69 | -0.0623 | -0.983 | -2.61 | -0.0706 | 0.083 | -0.148
14 | CCTTAGA | -0.138 | -0.203 | -0.255 | -0.643 | -0.0443 | -1.22 | -0.104 | -0.178 | -0.131 | -0.164
15 | ATAAACA | 0.0802 | 0.0296 | 0.0624 | -2.26 | 0.0716 | -0.714 | 0.0421 | 0.0829 | -0.00141 | 0.0747
16 | GGGTTCA | 0.106 | 0.141 | 0.792 | 1.9 | 0.0417 | 2.21 | 0.195 | 0.0394 | 0.143 | 0.201
17 | ACCGAGA | 0.107 | 0.211 | 0.918 | 2.01 | 0.17 | 1.31 | 0.176 | 0.169 | 0.0216 | 0.241
18 | TGGTTTC | -0.0662 | -0.0457 | 0.327 | 0.673 | 0.0673 | 1.04 | 0.104 | -0.0118 | 0.0791 | 0.0878
19 | ATGTGAG | 0.113 | 0.0125 | -0.692 | -0.385 | -0.0706 | -1.06 | 0.163 | -0.00636 | 0.167 | -0.0767
20 | ACATCCG | 0.0779 | 0.0498 | -0.555 | 0.54 | 0.0792 | -0.495 | 0.265 | 0.0513 | 0.0732 | -0.0308
21 | TACGGAC | -0.0187 | -0.0965 | 0.349 | 0.978 | -0.0221 | 0.963 | 0.0216 | 0.0597 | 0.0097 | -0.00988
22 | TCTTAAG | 0.139 | 0.0274 | -0.706 | -0.687 | 0.157 | -1.08 | 0.161 | 0.167 | 0.0769 | 0.0181
23 | TTATGCC | -0.0257 | -0.0294 | -0.275 | -0.594 | -0.0293 | -1.16 | -0.011 | -0.133 | 0.0867 | -0.205
24 | CGTCTCA | 0.194 | 0.0866 | 0.153 | -0.271 | 0.0993 | 0.135 | -0.0269 | 0.0798 | 0.189 | 0.171
25 | TAAACAT | -0.0611 | 0.0681 | -3.22 | -2.76 | -0.133 | 0.0863 | -0.104 | -0.753 | 0.0282 | -1.91
26 | GTAGCTA | 0.0188 | 0.0684 | 0.25 | 0.776 | -0.0176 | 1.32 | 0.0803 | 0.124 | -0.00959 | 0.12
27 | TCAGACG | 0.0935 | 0.0712 | -0.631 | -0.69 | 0.0522 | -1.04 | 0.224 | 0.000939 | 0.0435 | -0.106
28 | GACGGAC | -0.0156 | 0.00823 | 0.619 | 1.71 | -0.181 | 1.97 | 0.177 | 0.107 | -0.0718 | 0.0488
29 | CTGGCAC | -0.0636 | -0.0786 | -0.0162 | -0.0403 | 0.0189 | -0.418 | 0.0285 | -0.152 | -0.132 | -0.174
30 | TGGTCTA | -0.0298 | -0.0217 | 0.286 | 0.232 | -0.144 | 1.03 | -0.153 | -0.0692 | 0.0775 | 0.0504
